From paper PMC4251979
Positions count from the first letter of the chain named. Results are given in words; binding and its absence hold for the method and conditions named. Binding seen in cells or lysates may run through a third protein. Sequences can lack the tags named with a protein.

The chains behind the UniProt entries cited, without tags or fusion partners.
UniProt Q8IY92: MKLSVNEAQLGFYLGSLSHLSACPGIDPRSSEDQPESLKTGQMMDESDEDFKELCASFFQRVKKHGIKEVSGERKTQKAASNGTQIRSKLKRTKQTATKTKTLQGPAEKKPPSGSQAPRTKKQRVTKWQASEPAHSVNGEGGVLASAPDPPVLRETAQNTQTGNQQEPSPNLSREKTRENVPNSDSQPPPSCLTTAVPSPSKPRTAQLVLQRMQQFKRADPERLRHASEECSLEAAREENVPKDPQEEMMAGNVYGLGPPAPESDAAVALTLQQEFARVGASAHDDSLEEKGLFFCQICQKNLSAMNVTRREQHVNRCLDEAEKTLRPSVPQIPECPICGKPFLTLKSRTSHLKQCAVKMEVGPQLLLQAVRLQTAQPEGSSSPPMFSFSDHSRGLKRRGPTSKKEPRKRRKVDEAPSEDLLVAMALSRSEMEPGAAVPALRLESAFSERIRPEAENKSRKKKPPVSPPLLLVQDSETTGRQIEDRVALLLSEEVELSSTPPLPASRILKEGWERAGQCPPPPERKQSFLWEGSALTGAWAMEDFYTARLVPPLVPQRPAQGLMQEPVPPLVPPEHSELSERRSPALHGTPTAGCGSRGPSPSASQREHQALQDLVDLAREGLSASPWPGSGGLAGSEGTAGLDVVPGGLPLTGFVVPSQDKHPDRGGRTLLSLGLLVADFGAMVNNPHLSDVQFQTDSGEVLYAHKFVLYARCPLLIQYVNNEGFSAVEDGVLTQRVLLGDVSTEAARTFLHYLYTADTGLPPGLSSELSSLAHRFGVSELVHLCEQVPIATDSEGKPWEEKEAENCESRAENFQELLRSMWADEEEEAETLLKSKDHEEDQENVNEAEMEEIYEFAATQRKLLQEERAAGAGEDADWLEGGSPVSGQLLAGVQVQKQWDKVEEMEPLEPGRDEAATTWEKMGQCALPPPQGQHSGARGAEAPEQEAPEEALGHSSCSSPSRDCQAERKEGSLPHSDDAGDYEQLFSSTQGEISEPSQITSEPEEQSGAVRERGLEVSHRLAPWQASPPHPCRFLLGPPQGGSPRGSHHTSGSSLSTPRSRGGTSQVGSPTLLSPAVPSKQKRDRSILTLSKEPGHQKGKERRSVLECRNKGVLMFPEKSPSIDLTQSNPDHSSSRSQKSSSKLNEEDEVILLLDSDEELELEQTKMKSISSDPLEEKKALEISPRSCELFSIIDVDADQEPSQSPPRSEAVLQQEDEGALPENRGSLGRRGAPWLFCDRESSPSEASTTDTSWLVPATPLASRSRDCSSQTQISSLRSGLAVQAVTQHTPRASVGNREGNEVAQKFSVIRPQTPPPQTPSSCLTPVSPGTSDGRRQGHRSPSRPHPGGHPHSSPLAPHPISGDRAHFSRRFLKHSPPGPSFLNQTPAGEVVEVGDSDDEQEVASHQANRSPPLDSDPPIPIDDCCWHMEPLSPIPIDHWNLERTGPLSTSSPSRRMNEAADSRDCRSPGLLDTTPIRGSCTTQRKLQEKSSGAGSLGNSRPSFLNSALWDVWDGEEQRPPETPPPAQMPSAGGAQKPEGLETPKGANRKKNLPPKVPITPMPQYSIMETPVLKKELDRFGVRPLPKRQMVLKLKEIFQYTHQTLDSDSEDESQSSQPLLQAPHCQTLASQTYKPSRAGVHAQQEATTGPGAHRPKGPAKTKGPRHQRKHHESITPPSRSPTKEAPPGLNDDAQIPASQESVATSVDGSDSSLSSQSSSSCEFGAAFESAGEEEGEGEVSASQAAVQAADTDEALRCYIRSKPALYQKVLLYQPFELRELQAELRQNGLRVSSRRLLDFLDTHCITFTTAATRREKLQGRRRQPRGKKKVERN

Tests used:
Test in all cases: co-IP; HEK293 cells transiently transfected with FLAG-MUS81 (wild type or mutants); extracts immunoprecipitated with anti-FLAG (FLAG-M2 agarose beads), western blotting
[1] = molecular target: T1, FLAG-MUS81 W24A L25A (human) (UniProt Q96NY9)
T1 sequence: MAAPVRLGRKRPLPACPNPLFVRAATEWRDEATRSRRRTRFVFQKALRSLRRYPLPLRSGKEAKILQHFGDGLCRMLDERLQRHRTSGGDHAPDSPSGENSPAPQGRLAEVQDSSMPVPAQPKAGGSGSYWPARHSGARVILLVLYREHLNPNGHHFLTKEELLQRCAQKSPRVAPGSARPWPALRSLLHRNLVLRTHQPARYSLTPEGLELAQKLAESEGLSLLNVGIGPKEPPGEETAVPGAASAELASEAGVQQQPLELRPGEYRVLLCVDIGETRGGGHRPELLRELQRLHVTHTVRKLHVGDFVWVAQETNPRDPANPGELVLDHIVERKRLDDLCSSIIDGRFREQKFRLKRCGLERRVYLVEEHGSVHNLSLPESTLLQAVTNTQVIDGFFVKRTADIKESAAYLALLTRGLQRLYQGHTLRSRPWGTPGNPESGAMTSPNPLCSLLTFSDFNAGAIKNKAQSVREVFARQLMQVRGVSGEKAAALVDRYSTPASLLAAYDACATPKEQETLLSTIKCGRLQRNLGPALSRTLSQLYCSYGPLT

[2] = molecular target: T2, full-length FLAG-MUS81 L25K (human) (UniProt Q96NY9)
T2 sequence: T1 sequence with A24W, A25K

[3] = molecular target: T3, full-length FLAG-MUS81 L25P (human) (UniProt Q96NY9)
T3 sequence: T1 sequence with A24W, A25P

[4] = molecular target: T4, full-length FLAG-MUS81 L47P (human) (UniProt Q96NY9)
T4 sequence: T1 sequence with A24W, A25L, L47P

binding [1]: no binding | binding [2]: no binding | binding [3]: no binding | binding [4]: no binding
Substance: endogenous SLX4 (human cells) (from UniProt Q8IY92 1-1834)
